Data as given in the supplement of paper PMC4967469.
pIC50: −log10 of the molar value. A lower IC50 marks a more sensitive line; a fit beyond the top or the lowest dose is shown as a bound at that dose. The AUC spans the tested range (256-fold, ending at the top dose) of the same fit; values near 1 show little effect. The top dose, if marked as inferred, comes from the curve model; the source does not state it. For some of these results: An entry number marks a drug with two screens in the source, which often give different values.

compound: CC(C)=CC[C@@H](O)C1=CC(=O)c2c(O)ccc(O)c2C1=O [Shikonin]; assay: Viability of human cancer cell lines after 72 h of drug (GDSC screen); conditions: top dose 16 µM; top dose inferred
Experimental: (§1)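 Human cancer cell lines in 384-well plates, medium with 10% serum, drug for 72 h over a 256-fold dose range (nine 2-fold or five 4-fold steps up to the top dose). Adherent lines were fixed and stained with the nucleic acid dye Syto60, suspension lines read with resazurin; signal relative to control wells, capped at 0 and 100%. One two-parameter sigmoid per drug and line, fitted in a mixed model over all curves with the slope shared within a line.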

| Cell Line | AUC | pIC50 |
| --- | --- | --- |
| 697 (lymphoblastic leukaemia, suspension) | 0.464 | 6.09 |
| A704 (kidney, adherent) | 0.705 | 5.43 |
| Calu-6 (lung adenocarcinoma, adherent) | 0.653 | 5.55 |
| EHEB (lymphoid neoplasm, suspension) | 0.607 | 5.65 |
| EKVX (lung adenocarcinoma, adherent) | 0.721 | 5.05 |
| GAK (melanoma, adherent) | 0.524 | 5.94 |
| HCE-4 (oesophagus, adherent) | 0.427 | 6.19 |
| HOP-62 (lung adenocarcinoma, adherent) | 0.494 | 6.02 |
| IA-LM (large cell lung carcinoma, adherent) | 0.621 | 5.65 |
| JSC-1 (B-cell lymphoma, suspension) | 0.638 | 5.62 |
| KARPAS-620 (haematopoietic neoplasm, suspension) | 0.376 | 6.32 |
| KLE (endometrium, adherent) | 0.464 | 6.12 |
| KOPN-8 (B-cell leukaemia, suspension) | 0.336 | 6.42 |
| LC-2-ad (lung adenocarcinoma, adherent) | 0.546 | 5.87 |
| LXF-289 (lung adenocarcinoma, adherent) | 0.641 | 5.61 |
| MFM-223 (breast, adherent) | 0.471 | 6.08 |
| NCI-H23 (lung adenocarcinoma, adherent) | 0.902 | < 4.80 |
| NCI-H322M (lung adenocarcinoma, suspension) | 0.74 | 5.23 |
| NCI-H1355 (lung adenocarcinoma, adherent) | 0.545 | 5.85 |
| NCI-H1648 (lung adenocarcinoma, adherent) | 0.787 | 5.13 |
| NCI-H1666 (lung adenocarcinoma, semi-adherent) | 0.449 | 6.15 |
| TE-11 (oesophagus, adherent) | 0.57 | 5.82 |
| TGBC24TKB (biliary tract, adherent) | 0.77 | 5.24 |

compound: CCNc1cc(NC2CCC(O)CC2)nc(Nc2ccc3c(ccn3Cc3ccccc3)c2)n1 [CGP-082996 (CINK4)]; assay: as above; conditions: top dose 5.12 µM; top dose inferred
Experimental: as §1

| Cell Line | AUC | pIC50 |
| --- | --- | --- |
| 697 (lymphoblastic leukaemia, suspension) | 0.853 | 5.55 |
| A704 (kidney, adherent) | 0.973 | < 5.29 |
| CP67-MEL (melanoma, adherent) | 0.817 | < 5.29 |
| Calu-6 (lung adenocarcinoma, adherent) | 0.982 | < 5.29 |
| EHEB (lymphoid neoplasm, suspension) | 0.977 | < 5.29 |
| EKVX (lung adenocarcinoma, adherent) | 0.956 | < 5.29 |
| GAK (melanoma, adherent) | 0.916 | < 5.29 |
| HCE-4 (oesophagus, adherent) | 0.87 | 5.44 |
| HOP-62 (lung adenocarcinoma, adherent) | 0.927 | < 5.29 |
| IA-LM (large cell lung carcinoma, adherent) | 0.896 | < 5.29 |
| JSC-1 (B-cell lymphoma, suspension) | 0.948 | < 5.29 |
| KARPAS-620 (haematopoietic neoplasm, suspension) | 0.905 | < 5.29 |
| KLE (endometrium, adherent) | 0.834 | < 5.29 |
| KOPN-8 (B-cell leukaemia, suspension) | 0.944 | < 5.29 |
| KP-N-RT-BM-1 (neuroblastoma, semi-adherent) | 0.967 | < 5.29 |
| LC-2-ad (lung adenocarcinoma, adherent) | 0.683 | 5.97 |
| LXF-289 (lung adenocarcinoma, adherent) | 0.849 | 5.43 |
| MFM-223 (breast, adherent) | 0.987 | < 5.29 |
| NCI-H23 (lung adenocarcinoma, adherent) | 0.987 | < 5.29 |
| NCI-H322M (lung adenocarcinoma, suspension) | 0.936 | < 5.29 |
| NCI-H1355 (lung adenocarcinoma, adherent) | 0.839 | < 5.29 |
| NCI-H1648 (lung adenocarcinoma, adherent) | 0.889 | < 5.29 |
| NCI-H1666 (lung adenocarcinoma, semi-adherent) | 0.985 | < 5.29 |
| TE-11 (oesophagus, adherent) | 0.926 | < 5.29 |
| TGBC24TKB (biliary tract, adherent) | 0.855 | 5.44 |

compound: CNC(=O)c1ccc(Nc2cc(Nc3ccccc3S(=O)(=O)C(C)C)c3cc[nH]c3n2)nc1 [HG-5-113-01]; assay: as above; conditions: top dose 10 µM; top dose inferred
Experimental: as §1

| Cell Line | AUC | pIC50 |
| --- | --- | --- |
| A704 (kidney, adherent) | 0.82 | 5.26 |
| EKVX (lung adenocarcinoma, adherent) | 0.791 | < 5.00 |
| GAK (melanoma, adherent) | 0.845 | 5.17 |
| IA-LM (large cell lung carcinoma, adherent) | 0.795 | 5.27 |
| LXF-289 (lung adenocarcinoma, adherent) | 0.6 | 5.93 |
| MFM-223 (breast, adherent) | 0.688 | 5.68 |
| NCI-H1355 (lung adenocarcinoma, adherent) | 0.705 | 5.51 |
| NCI-H1648 (lung adenocarcinoma, adherent) | 0.654 | 5.76 |

compound: COc1cc(-c2nn([C@H]3CC[C@H](N4CCN(C(C)=O)CC4)CC3)c3ncnc(N)c23)ccc1NC(=O)c1cc2ccccc2n1C [A-770041]; assay: as above; conditions: top dose 5.12 µM; top dose inferred
Experimental: as §1

| Cell Line | AUC | pIC50 |
| --- | --- | --- |
| 697 (lymphoblastic leukaemia, suspension) | 0.795 | 5.73 |
| A704 (kidney, adherent) | 0.698 | 5.95 |
| CP67-MEL (melanoma, adherent) | 0.907 | < 5.29 |
| Calu-6 (lung adenocarcinoma, adherent) | 0.946 | < 5.29 |
| EHEB (lymphoid neoplasm, suspension) | 0.753 | 5.61 |
| EKVX (lung adenocarcinoma, adherent) | 0.872 | < 5.29 |
| GAK (melanoma, adherent) | 0.95 | < 5.29 |
| HCE-4 (oesophagus, adherent) | 0.727 | 5.90 |
| HOP-62 (lung adenocarcinoma, adherent) | 0.567 | 6.31 |
| IA-LM (large cell lung carcinoma, adherent) | 0.881 | < 5.29 |
| JSC-1 (B-cell lymphoma, suspension) | 0.977 | < 5.29 |
| KARPAS-620 (haematopoietic neoplasm, suspension) | 0.867 | 5.45 |
| KLE (endometrium, adherent) | 0.683 | 5.85 |
| KOPN-8 (B-cell leukaemia, suspension) | 0.864 | 5.46 |
| KP-N-RT-BM-1 (neuroblastoma, semi-adherent) | 0.934 | < 5.29 |
| LC-2-ad (lung adenocarcinoma, adherent) | 0.567 | 6.31 |
| LXF-289 (lung adenocarcinoma, adherent) | 0.641 | 6.11 |
| MFM-223 (breast, adherent) | 0.988 | < 5.29 |
| MOLT-13 (T-cell lymphoblastic leukaemia, suspension) | 0.879 | 5.38 |
| NCI-H23 (lung adenocarcinoma, adherent) | 0.969 | < 5.29 |
| NCI-H322M (lung adenocarcinoma, suspension) | 0.925 | < 5.29 |
| NCI-H1355 (lung adenocarcinoma, adherent) | 0.858 | < 5.29 |
| NCI-H1648 (lung adenocarcinoma, adherent) | 0.541 | 6.38 |
| NCI-H1666 (lung adenocarcinoma, semi-adherent) | 0.986 | < 5.29 |
| TE-11 (oesophagus, adherent) | 0.728 | 5.88 |
| TGBC24TKB (biliary tract, adherent) | 0.639 | 6.12 |

compound: Cc1cc(N2CCOCC2)cc2[nH]c(-c3c(NC[C@@H](O)c4cccc(Cl)c4)cc[nH]c3=O)nc12 [BMS-536924]; assay: as above; conditions: top dose 4 µM; screen: GDSC drug entry 1091; top dose inferred
Experimental: as §1

| Cell Line | AUC | pIC50 |
| --- | --- | --- |
| 697 (lymphoblastic leukaemia, suspension) | 0.915 | 5.41 |
| A704 (kidney, adherent) | 0.903 | < 5.40 |
| Calu-6 (lung adenocarcinoma, adherent) | 0.945 | < 5.40 |
| EHEB (lymphoid neoplasm, suspension) | 0.936 | < 5.40 |
| EKVX (lung adenocarcinoma, adherent) | 0.755 | 5.48 |
| GAK (melanoma, adherent) | 0.977 | < 5.40 |
| HCE-4 (oesophagus, adherent) | 0.963 | < 5.40 |
| HOP-62 (lung adenocarcinoma, adherent) | 0.975 | < 5.40 |
| IA-LM (large cell lung carcinoma, adherent) | 0.961 | < 5.40 |
| KARPAS-620 (haematopoietic neoplasm, suspension) | 0.737 | 5.98 |
| KLE (endometrium, adherent) | 0.877 | < 5.40 |
| KOPN-8 (B-cell leukaemia, suspension) | 0.989 | < 5.40 |
| LC-2-ad (lung adenocarcinoma, adherent) | 0.761 | 5.84 |
| LXF-289 (lung adenocarcinoma, adherent) | 0.944 | < 5.40 |
| MFM-223 (breast, adherent) | 0.866 | 5.45 |
| MOLT-13 (T-cell lymphoblastic leukaemia, suspension) | 0.966 | < 5.40 |
| NCI-H23 (lung adenocarcinoma, adherent) | 0.947 | < 5.40 |
| NCI-H322M (lung adenocarcinoma, suspension) | 0.952 | < 5.40 |
| NCI-H1355 (lung adenocarcinoma, adherent) | 0.757 | 5.70 |
| NCI-H1648 (lung adenocarcinoma, adherent) | 0.908 | < 5.40 |
| NCI-H1666 (lung adenocarcinoma, semi-adherent) | 0.764 | 5.80 |
| TE-11 (oesophagus, adherent) | 0.809 | 5.73 |
| TGBC24TKB (biliary tract, adherent) | 0.739 | 5.94 |

same assay, conditions: top dose 5.12 µM; screen: GDSC drug entry 62

| Cell Line | AUC | pIC50 |
| --- | --- | --- |
| 697 (lymphoblastic leukaemia, suspension) | 0.715 | – |
| A704 (kidney, adherent) | 0.711 | 5.91 |
| CP67-MEL (melanoma, adherent) | 0.597 | 6.14 |
| Calu-6 (lung adenocarcinoma, adherent) | 0.953 | < 5.29 |
| EHEB (lymphoid neoplasm, suspension) | 0.884 | < 5.29 |
| EKVX (lung adenocarcinoma, adherent) | 0.721 | 5.54 |
| GAK (melanoma, adherent) | 0.973 | < 5.29 |
| HCE-4 (oesophagus, adherent) | 0.893 | 5.34 |
| HOP-62 (lung adenocarcinoma, adherent) | 0.646 | 6.09 |
| IA-LM (large cell lung carcinoma, adherent) | 0.885 | < 5.29 |
| JSC-1 (B-cell lymphoma, suspension) | 0.866 | 5.35 |
| KARPAS-620 (haematopoietic neoplasm, suspension) | 0.37 | 6.83 |
| KLE (endometrium, adherent) | 0.784 | – |
| KOPN-8 (B-cell leukaemia, suspension) | 0.938 | < 5.29 |
| KP-N-RT-BM-1 (neuroblastoma, semi-adherent) | 0.692 | 5.88 |
| LC-2-ad (lung adenocarcinoma, adherent) | 0.347 | 6.92 |
| LXF-289 (lung adenocarcinoma, adherent) | 0.67 | 6.02 |
| MFM-223 (breast, adherent) | 0.988 | < 5.29 |
